From PubChem BioAssay AID624296 (National Center for Advancing Translational Sciences (NCATS), 2012)
Among all 350,000 compounds or so, about 9,900 (2.8%) were called active. The inconclusive results got no clear call from the source; some entries with a clear call stand among them for comparison. Calls come from the whole dose curve; as a rule, active = well fitted activation curve with a large enough effect; inconclusive = small, poorly fitted or top-dose-only effect; inactive = no such curve, though single readings can be large or run the other way. No potency is given beside an inconclusive call; the fits are too rough.
Potency is the fitted concentration of half-maximal effect; tags give direction and shape of the fitted curve.

Test: A quantitative high throughput screen for small molecules that induce DNA re-replication in MCF 10a normal breast cells. For activity, positive = re-replication: % of control where 0% means no effect. Note: nearly all actives have a fitted effect of over 50% in size.
Conditions: MCF 10A DNA re-replication, Hoechst nuclear intensity, 48 h; activity, positive = re-replication: at 46.1 µM (top of the series)
For `Cc1ccc(Cl)cc1NC(=O)CSC(N)=O`, the “activity, positive = re-replication” value was inactive: 6.32%.
In the case of `CC1CC(C)CN(C(=O)COC(=O)c2ccc3c(c2)OCO3)C1` (stereo not drawn), the “activity, positive = re-replication” value is reported as inactive: 2.32%.
In the case of `COC(=O)COc1cccc(NC(=O)C(c2ccccc2)c2ccccc2)c1`, the “activity, positive = re-replication” value is reported as inactive: 5.61%.
With `CCS(=O)(=O)Nc1ccc(C2=NN(C(=S)Nc3ccccc3)C(c3ccco3)C2)cc1` (stereo not drawn) the “activity, positive = re-replication” value was inactive: 22.2%.
With `Cc1ccc2c(Cl)cc(Cl)c(OCC(=O)N(C(C)C)C(C)C)c2n1` the “activity, positive = re-replication” value was inactive: -2.61%.
With `Cc1cccc(-c2ocnc2C(=O)Nc2ccccc2NC(=O)c2ccccn2)c1` the Potency was inconclusive [activator, partial curve, poor fit].
In the case of `O=C(Nc1nccs1)c1ccc(Cl)c([N+](=O)[O-])c1`, the Potency is reported as inconclusive [activator, single point].
With `COc1cc(NC(=O)c2ccc([N+](=O)[O-])o2)ccc1NC(=O)c1cccs1` the Potency was inconclusive [activator, full curve].
With `Cc1cc(C)cc(NC2=CC(=O)CC(c3ccco3)C2)c1` (stereo not drawn) the “activity, positive = re-replication” value was inactive: 24.7%.
In the case of `CN(C)S(=O)(=O)c1cccc(-n2sc3ccccc3c2=O)c1`, the Potency is reported as inconclusive [activator, partial curve, poor fit].
For `O=C(NC(=S)Nc1cccc(Cl)c1)c1cncc(Br)c1`, the “activity, positive = re-replication” value was inactive: 22.8%.
For `Cc1ccc(NC(=O)c2ccc(Cl)nc2)cc1S(=O)(=O)N1CCOCC1`, the Potency was inconclusive [activator, partial curve, poor fit].
In the case of `O=C(N/N=C/c1sc(N2CCOCC2)nc1-c1ccccc1)c1ccc(O)cc1`, the Potency is reported as inconclusive [activator, single point].
With `O=[N+]([O-])c1ccc(Oc2ccc(-c3nnco3)cc2)c(Cl)c1` the “activity, positive = re-replication” value was inactive: 5.12%.
With `Cc1cc(C)c(/C=N/n2c(C)cc(C)c(C#N)c2=O)c(C)c1` the Potency was inconclusive [activator, partial curve, poor fit].
With `CCc1ccc(C2=NN(C(=O)CCC(=O)O)C(c3cccs3)C2)cc1` (stereo not drawn) the Potency was inconclusive [activator, single point].
In the case of `COc1ccc(S(=O)(=O)N(C)C)cc1NS(=O)(=O)c1ccc(F)c(F)c1F`, the “activity, positive = re-replication” value is reported as inactive: -0.203%.
For `CCc1nnc(NC(=O)CCC(=O)N2CCN(S(=O)(=O)c3cc(Cl)ccc3OC)CC2)s1`, the Potency was inconclusive [activator, full curve, poor fit].
For `O=C(NCCCN1CCN(c2ccc(F)cc2)CC1)NC12CC3CC(CC(C3)C1)C2`, the Potency was inconclusive [activator, single point].
For `CC1CCCCN1C(=O)COC(=O)c1ccc(=O)n(Cc2ccccc2)n1` (stereo not drawn), the Potency was inconclusive [activator, full curve, poor fit].
For `CNC(=S)N1N=C(c2ccc(C)cc2)CC1c1cc(OC)ccc1OC` (stereo not drawn), the Potency was inconclusive [activator, single point].
With `O=C(CN1C(=O)COc2ccc(S(=O)(=O)N3CCCCCC3)cc21)NCc1ccc(F)cc1` the “activity, positive = re-replication” value was inactive: -8.45%.
For `COc1ccccc1C(=O)N1CCN(S(=O)(=O)Cc2ccccc2)CC1`, the Potency was inconclusive [activator, partial curve, poor fit].
In the case of `O=C(OCC(=O)N(CCc1ccccc1)Cc1ccccc1)c1cccc(S(=O)(=O)N2CCOCC2)c1`, the Potency is reported as inconclusive [activator, single point].
In the case of `Cc1ccc(C2C=NN(c3ccccc3)C2=O)cc1` (stereo not drawn), the “activity, positive = re-replication” value is reported as inactive: -2.01%.
With `Cc1ccc(NC(=O)CSc2nnc(COc3ccccc3F)n2N)cc1S(=O)(=O)N1CCOCC1` the Potency was inconclusive [activator, single point].
For `CC(Oc1ccc2c3c(c(=O)oc2c1)CCCC3)C(=O)NCC1CCC(C(=O)O)CC1` (stereo not drawn), the Potency was inconclusive [activator, partial curve, poor fit].
In the case of `COC(=O)Cc1ccc(NC(=S)NCc2ccccc2Cl)cc1`, the “activity, positive = re-replication” value is reported as inactive: 18.3%.
In the case of `C=CCn1c(NCc2ccccc2O)nc2ccccc21`, the “activity, positive = re-replication” value is reported as inactive: 17%.
For `CC(C)C[C@H]1CN=C(Nc2ccccc2)N1CCc1ccc(F)cc1`, the Potency was inconclusive [activator, single point].
With `COc1ccc2nc(NC(=O)Nc3ccccc3OC)sc2c1` the Potency was inconclusive [activator, single point].
In the case of `CN(C)/C=C1/Sc2ccccc2C1=O`, the “activity, positive = re-replication” value is reported as inactive: 11%.
For `CCC(C)OC(=O)c1[nH]c2c(c1C)C(=O)CC(c1ccc(N(C)C)cc1)C2` (stereo not drawn), the Potency was inconclusive [activator, single point].
In the case of `COCc1nnc(NC(=O)c2ccc(S(=O)(=O)N3CCCc4ccccc43)cc2)o1`, the Potency is reported as active: 16.4 µM.
For `O=C(/C=C/c1ccc2c(c1)OCO2)Nc1nc(-c2ccccc2)cs1`, the Potency was inconclusive [activator, full curve].
For `CCOc1cc(NC(=O)CC(C)C)c(OCC)cc1NC(=O)CCn1nnc2ccccc21`, the “activity, positive = re-replication” value was inactive: -1.69%.
In the case of `COc1ccc(C(=O)NCCSc2ccccc2)cc1OC`, the Potency is reported as inconclusive [activator, single point].
With `CCOc1ccc(NC(=NCc2ccc3c(c2)OCO3)SC2CC(=O)N(c3ccccc3)C2=O)cc1` (stereo not drawn) the Potency was inconclusive [activator, partial curve, poor fit].
With `CC[C@]12c3[nH]c4cc(-c5ccco5)ccc4c3CCN1C(=O)[C@@H](CC(=O)NCCC1=CCCCC1)C[C@@H]2C(=O)N1CCN(C(=O)C2CC2)CC1` the “activity, positive = re-replication” value was inactive: -8.37%.
In the case of `Cc1cnn(-c2cc(N/N=C/c3ccc(F)cc3)ncn2)c1`, the Potency is reported as inconclusive [activator, full curve].
For `CC(C)Nc1nc(Oc2cccc(Cl)c2Cl)cc(C(F)(F)F)n1`, the Potency was inconclusive [activator, single point].
For `CCCOc1ccc(C(=O)CCC(=O)NNC(=O)Cn2nc(C)cc2C)cc1`, the “activity, positive = re-replication” value was inactive: 5.86%.
For `CCOc1ccccc1NC(=O)CCS(=O)(=O)c1ccc2c(c1)CC(C)N2C(C)=O` (stereo not drawn), the “activity, positive = re-replication” value was inactive: -5.28%.
For `O=C1C=C(Nc2ccccc2)CC(c2ccccc2)C1` (stereo not drawn), the Potency was inconclusive [activator, single point].
With `O=C(/C=C1\NC2(CCCC2)Cc2ccccc21)C(=O)N/N=C/c1ccccc1O` the Potency was inconclusive [activator, full curve].
For `N#Cc1c(NC(=O)CSc2nc(-c3ccco3)cc(C(F)(F)F)n2)sc2c1CCCC2`, the Potency was inconclusive [activator, single point].
In the case of `Cc1ccc(CNC(=O)COC(=O)Cc2ccc(-c3ccccc3)cc2)cc1`, the Potency is reported as inconclusive [activator, partial curve, poor fit].
In the case of `Cc1ccc(C(=O)N2CCN(Cc3ccc4c(c3)OCO4)CC2)cc1[N+](=O)[O-]`, the Potency is reported as inconclusive [activator, partial curve, poor fit].
With `COc1ccc(/C=C(/NC(=O)c2ccccc2)C(=O)N/N=C/c2sccc2C)cc1` the Potency was inconclusive [activator, single point].
In the case of `Cc1sc2nc(CN3CCCCC3)nc(Cl)c2c1C`, the Potency is reported as inconclusive [activator, single point].
In the case of `Cc1cc(C(F)(F)F)c2c(C)nn(-c3ccccc3)c2n1`, the Potency is reported as inconclusive [activator, partial curve, poor fit].
In the case of `Cc1ccc(NS(=O)(=O)c2ccc(NC(=O)c3ccc(Br)o3)cc2)c(C)c1`, the Potency is reported as inconclusive [activator, single point].
In the case of `Nc1nc(N)nc(-c2cc([N+](=O)[O-])ccc2O)n1`, the Potency is reported as inconclusive [activator, partial curve, poor fit].
With `CC1(C)C(C(=O)OCC(Cl)(Cl)Cl)N2C(=O)C(NC(=O)Cc3ccccc3)C2S1=O` (stereo not drawn) the Potency was inconclusive [activator, single point].
In the case of `CCCN(CCC)S(=O)(=O)c1ccc(C(=O)Nc2nc(-c3ccccc3)c(C(=O)OCC)s2)cc1`, the Potency is reported as inconclusive [activator, partial curve, poor fit].
In the case of `Cc1cccc(C(=O)NCC(c2ccco2)N2CCc3ccccc32)c1` (stereo not drawn), the Potency is reported as inconclusive [activator, single point].
In the case of `Nc1c(-c2ccccc2)cnn1-c1cccc(C(F)(F)F)c1`, the “activity, positive = re-replication” value is reported as inactive: 2.45%.
In the case of `COc1ccc(/C=C2\N=C(c3ccccc3)N(c3ccc(C(=O)O)cc3)C2=O)cc1OC`, the Potency is reported as inconclusive [activator, single point].
In the case of `O=C(CCn1c(=O)oc2ccccc21)Nc1nccs1`, the “activity, positive = re-replication” value is reported as inactive: 2.4%.
With `CN(C(=O)c1sc2nc(N3CCCC3)c3c(c2c1N)CC(C)(C)OC3)c1ccccc1` the Potency was inconclusive [activator, single point].
With `NNC(=O)CN1C(c2cccc(Cl)c2)=Nc2ccc(Br)cc2C1c1ccccc1` (stereo not drawn) the Potency was inconclusive [activator, partial curve, poor fit].
For `COc1ccc(OC)c(NC(=O)c2ccccc2SC)c1`, the “activity, positive = re-replication” value was inactive: 2.22%.
For `O=C(C1=C[C@H](c2ccc3c(c2)OCO3)C[C@H](OCc2ccc(CO)cc2)O1)N1CCCCCCC1`, the Potency was inconclusive [activator, single point].
With `CC(=O)N/N=C/C1=CCC2CC1C2(C)C` (stereo not drawn) the “activity, positive = re-replication” value was inactive: 1.42%.
In the case of `COc1cccc(NC(=O)CSc2nnc3cc(C)nc(N)n23)c1`, the Potency is reported as inconclusive [activator, single point].
With `COC(=O)c1ccc2c(c1O)C(=O)c1ccccc1C2=O` the Potency was inconclusive [activator, partial curve, poor fit].
For `N#CC1=C(N)OC2=C(CCc3ccccc32)C1c1ccccc1Cl` (stereo not drawn), the Potency was active: 2.91 µM.
For `CC1(C)C(=O)Nc2ccccc2N1C(=O)COC(=O)c1cc(Cl)cc(Cl)c1`, the “activity, positive = re-replication” value was inactive: -2.03%.
